Measured values reported in article PMC6919601, “Identification of Plasmodium dipeptidyl aminopeptidase allosteric inhibitors by high throughput screening” (PLoS ONE, 2019).
Hit rate of the full screen: of about 110,000 compounds, about 230 (0.21%) showed an effect of 50% or more. The list shows a part of the results.
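Also: 30 min substrate incubation versus DMSO and 10 µM JCP410 controls.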

Each compound was assayed against DPAP1 (Plasmodium falciparum, UniProt Q8IIJ9) (assay: primary screen, percent inhibition; read by cleavage of a fluorogenic dipeptide substrate; higher = more effect of the substance).
Chain of DPAP1 (Q8IIJ9 whole entry, looked up): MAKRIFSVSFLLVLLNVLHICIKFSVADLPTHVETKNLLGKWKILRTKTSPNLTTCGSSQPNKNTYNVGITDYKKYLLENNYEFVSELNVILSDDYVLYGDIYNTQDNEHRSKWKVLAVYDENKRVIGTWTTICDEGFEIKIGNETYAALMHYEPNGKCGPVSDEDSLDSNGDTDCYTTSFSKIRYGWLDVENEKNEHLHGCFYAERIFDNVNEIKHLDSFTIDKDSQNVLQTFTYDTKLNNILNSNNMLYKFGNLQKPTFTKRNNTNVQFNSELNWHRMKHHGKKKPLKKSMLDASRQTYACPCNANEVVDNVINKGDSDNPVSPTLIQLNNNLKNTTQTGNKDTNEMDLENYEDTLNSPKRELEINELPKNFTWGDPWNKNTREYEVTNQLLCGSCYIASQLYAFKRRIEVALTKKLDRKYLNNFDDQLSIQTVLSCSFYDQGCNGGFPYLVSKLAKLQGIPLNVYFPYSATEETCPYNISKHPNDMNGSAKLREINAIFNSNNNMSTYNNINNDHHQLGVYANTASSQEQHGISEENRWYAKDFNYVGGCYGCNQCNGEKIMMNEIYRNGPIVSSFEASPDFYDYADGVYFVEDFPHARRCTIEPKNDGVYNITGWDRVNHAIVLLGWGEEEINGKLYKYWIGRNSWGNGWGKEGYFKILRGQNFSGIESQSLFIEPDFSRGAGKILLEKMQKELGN
Set-up: species or system P. falciparum D10 trophozoite lysates; single well
In the case of `COc1ccccc1OC(C)C(=O)Nc1noc2ccccc12` (centres unmarked), the “% Inhibition @ 10 uM” value is reported as -2.85%.
For `O=c1nc(-c2ccccc2)sc2ccccc12`, the “% Inhibition @ 10 uM” value was -2.35%.
In the case of `O=C(O)CCCN1CNC(=S)NC1`, the “% Inhibition @ 10 uM” value is reported as -15.6%.
In the case of `COc1ccc(Cl)cc1C(=O)Nc1nc2c(s1)C(=O)CC(C)(C)C2`, the “% Inhibition @ 10 uM” value is reported as 4.64%.
With `Cc1ccc(C(C)NC(=O)Cc2ccccc2)cc1` (centres unmarked) the “% Inhibition @ 10 uM” value was -1.5%.
`CCOc1c(CNCCCSc2nnnn2C)cccc1OC` was tested, and the “% Inhibition @ 10 uM” value was -1.11%.
With `CCOc1cc(C2CC(=O)NC(SCC(N)=O)=C2C#N)ccc1O` (centres unmarked) the “% Inhibition @ 10 uM” value was 5.05%.
`CCCc1ccc(OCc2ccc(C(=O)Nc3cccc(C)n3)o2)c(OC)c1` was tested, and the “% Inhibition @ 10 uM” value was 0.413%.
In the case of `CCOc1cc(C2c3c(oc4ccc(F)cc4c3=O)C(=O)N2CCc2ccc(OC)cc2)ccc1O` (centres unmarked), the “% Inhibition @ 10 uM” value is reported as -5.38%.
For `CCn1cc(C(=O)NCc2ccc(C)o2)c2cc(OC)c(OC)cc2c1=O`, the “% Inhibition @ 10 uM” value was 2.73%.
`Cc1ccc(-c2cc(C(=O)N3N=C(C(F)F)CC3(O)C(F)F)c3ccccc3n2)o1` (centres unmarked) was tested, and the “% Inhibition @ 10 uM” value was -1.88%.
With `Cn1c(NC(=O)c2cc(-c3cccc(Br)c3)nc3ccccc23)cc(=O)n(C)c1=O` the “% Inhibition @ 10 uM” value was -0.883%.
`COC(=O)CCC(=O)Nc1ccc([N+](=O)[O-])cc1` was tested, and the “% Inhibition @ 10 uM” value was -6.52%.
`COc1cccc(CN2CCN(Cc3ccccc3)CC2)c1OC` was tested, and the “% Inhibition @ 10 uM” value was 0.605%.
For `COC(=O)C1=CN(C(C)C)C=C(C(=O)OC)C1c1ccc(OC)cc1`, the “% Inhibition @ 10 uM” value was -3.23%.
In the case of `CC1CC(C)CN(CC(O)COC2CC(C)CC(C)(C)C2)C1` (centres unmarked), the “% Inhibition @ 10 uM” value is reported as -4.56%.
For `Cn1c(=O)c(C(=O)Nc2ccccc2)c(O)c2ccccc21`, the “% Inhibition @ 10 uM” value was -1.96%.
For `Cc1ccc(/C=c2/sc3nc(/C=C/c4ccc(Cl)cc4)nn3c2=O)o1`, the “% Inhibition @ 10 uM” value was 10.7%.
In the case of `COc1ccc(-c2cc3nc(C)c(CCC(=O)Nc4cccc(C)n4)c(C)n3n2)c(OC)c1`, the “% Inhibition @ 10 uM” value is reported as -2.25%.
With `CC(C)Oc1ccc(C2=CC(=O)NC2=O)cc1` the “% Inhibition @ 10 uM” value was -2.55%.
`COc1cc(C2Nc3ccc4ncccc4c3C3=C2C(=O)CC(C)(C)C3)cc(OC)c1O` (centres unmarked) was tested, and the “% Inhibition @ 10 uM” value was -1.44%.
In the case of `COc1cc2c(cc1OC)C1(CCCCC1)CNC2CCc1ccccc1` (centres unmarked), the “% Inhibition @ 10 uM” value is reported as 4.22%.
`COc1cc(C2C=C(Nc3ccccc3)C(=O)N2c2ccccc2)ccc1O` (centres unmarked) was tested, and the “% Inhibition @ 10 uM” value was 1.64%.
`CC1CCCCN1CCNC(=O)c1cnn2ccccc12` (centres unmarked) was tested, and the “% Inhibition @ 10 uM” value was -8.42%.
With `CCCc1nnc(NC(=O)C(CC)Sc2nnnn2-c2ccccc2)s1` (centres unmarked) the “% Inhibition @ 10 uM” value was 0.484%.
For `Cc1nnc2sc(-c3cccnc3)nn12`, the “% Inhibition @ 10 uM” value was 0.635%.
In the case of `COc1ccc2c(c1)c(C(C)=O)c(C)n2-c1cccc2ccccc12`, the “% Inhibition @ 10 uM” value is reported as 1.39%.
With `Cc1nn(CC(=O)NCCCOC(C)C)c(=O)c2nn(-c3ccccc3)c(C)c12` the “% Inhibition @ 10 uM” value was 7.67%.
For `CCN(Cc1ccccc1)S(=O)(=O)c1cc(Cl)ccc1Cl`, the “% Inhibition @ 10 uM” value was -3.44%.
In the case of `COc1cccc(C(=O)Nc2ccc(NC(=O)c3ccc(C)cc3)cc2)c1`, the “% Inhibition @ 10 uM” value is reported as -3.66%.
With `Cc1ccc(-c2cc(-c3ccccc3)c(C#N)c(SCC(N)=O)n2)cc1` the “% Inhibition @ 10 uM” value was -2.89%.
For `CCOc1ccc(-c2csc(-c3cc4ccccc4oc3=O)n2)cc1`, the “% Inhibition @ 10 uM” value was 2.24%.
`COc1cccc(CNc2nc3ccccc3c3nncn23)c1` was tested, and the “% Inhibition @ 10 uM” value was 1.49%.
For `COc1ccccc1NC(=O)c1sc2nc3c(cc2c1N)CCCCC3`, the “% Inhibition @ 10 uM” value was 1.92%.
For `Cc1cc(/C=C\c2ccccc2)c(C#N)c(S)n1`, the “% Inhibition @ 10 uM” value was 33.7%.
In the case of `CC(=O)C12CCCCC1CC1C3CC(C)[C@@]4(O)CC(=O)CCC4(C)C3CCC12C` (some centres unmarked), the “% Inhibition @ 10 uM” value is reported as 2.58%.
For `COC(=O)Nc1nc2ccccc2n1Cc1ccc(F)cc1`, the “% Inhibition @ 10 uM” value was -3.04%.
`CC1CCN(S(=O)(=O)c2ccc(NC(=O)c3ccccc3Br)cc2)CC1` was tested, and the “% Inhibition @ 10 uM” value was -1.17%.
`O=C(C1CC(c2ccccc2F)=NO1)N1CCCCC1` (centres unmarked) was tested, and the “% Inhibition @ 10 uM” value was 2.85%.
With `CCC(=O)NC1CCC(CC2CCC(NC(=O)CC)CC2)CC1` (centres unmarked) the “% Inhibition @ 10 uM” value was -7.08%.
With `O=C(NCCc1ccccc1)C1CCN(C(=O)c2cnn(-c3ccccc3)c2-n2cccc2)CC1` the “% Inhibition @ 10 uM” value was 3.4%.
`O=C(CSc1nc[nH]n1)Nc1ncccn1` was tested, and the “% Inhibition @ 10 uM” value was 6.51%.
In the case of `CCCCCCCc1c(C)nn(-c2nnc3c(n2)[nH]c2ccccc23)c1O`, the “% Inhibition @ 10 uM” value is reported as -2.42%.
`CC(C)N(CCC#N)S(=O)(=O)c1cccc2nsnc12` was tested, and the “% Inhibition @ 10 uM” value was -1.69%.
For `CC(NC(=O)c1ccccc1)c1ccc2c(c1)OCCCO2` (centres unmarked), the “% Inhibition @ 10 uM” value was 3.8%.
For `CCOC(=O)N1CCC(NCc2ccc(Cl)c(Cl)c2)CC1`, the “% Inhibition @ 10 uM” value was 1.57%.
`CCOC(=O)c1oc2cc(O)c(CC)cc2c(=O)c1-c1ccc2c(c1)OCCO2` was tested, and the “% Inhibition @ 10 uM” value was -1.11%.
With `O=c1cc(COc2cc(Cl)ccc2Cl)nc2scc(-c3ccccc3)n12` the “% Inhibition @ 10 uM” value was -8.66%.
With `COc1cccc(CNC(=O)c2nnn(-c3ccc(OC(F)(F)F)cc3)c2N)c1` the “% Inhibition @ 10 uM” value was 5.12%.
With `Cc1ccccc1N1CC(C(=O)NC(C)C)CC1=O` (centres unmarked) the “% Inhibition @ 10 uM” value was 10%.
